Assay results as given in ChEMBL document CHEMBL1201862, “PubChem BioAssay data set” (2004).

Each molecule was assayed on NCI-H322M (assay: inhibition of tumour cell growth, NCI panel, 48 h).

Row | Structure (SMILES) | GI50
1 | COC(=O)c1ccc(/N=N/N(C)CO)cc1 | inactive: > 100 µM
2 | NCOC(=O)Cc1ccc(Br)cc1 | inactive: > 100 µM
3 | COc1ccccc1NC(=O)C1=C(C)NC(C)=C(C(=O)Nc2ccccc2OC)C1c1ccccc1Cl | inactive: > 100 µM
4 | C(CCc1nnc2c(n1)CCCC2)Cc1nnc2c(n1)CCCC2 | inactive: > 100 µM
5 | O=C1CCC(NC(=O)c2ccccc2)C(=O)N1 (stereo not drawn) | inactive: > 100 µM
6 | COC(=O)C1=C(C(=O)OC)C(C(=O)OC)C(C(=O)OC)C(C(=O)OC)(C(=O)OC)C(C(=O)OC)=C1C(=O)OC (stereo not drawn) | inactive: 19.8 µM
7 | CN(C)CCSS(=O)(=O)O | inactive: > 100 µM
8 | Cc1ccc2c(/C=C/c3ccc(N(C)C)cc3)ccnc2c1C | inactive: 13.4 µM
9 | CC1(C)O[C@H]([C@H](O)c2nnc3ccc(Cl)nn23)[C@@H]([C@H]2COC(C)(C)O2)O1 | inactive: > 100 µM
10 | COc1ccc(CC2COc3cc(O)cc(O)c3C2=O)cc1O (stereo not drawn) | inactive: 30.5 µM
11 | C=C1CC(C)(c2ccc(Nc3nc4ccccc4c4occc34)cc2)OC1=O (stereo not drawn) | inactive: 18.8 µM
12 | N#C[C@H](c1nc2ccccc2s1)c1nc2ccccc2nc1Cl | inactive: > 100 µM
13 | CCOC(=O)C1=NN(c2ccc(Cl)cc2)C2=CC(C)=NN(C)C(=S)N21 | inactive: > 100 µM
14 | Cc1ccc(NC(=O)C2C(=O)N(c3ccc(C)c(C)c3)C(=O)/C2=N\NC(N)=O)cc1C (stereo not drawn) | inactive: > 100 µM
15 | NC(=O)N/N=C(/CC1C(=O)Oc2ccccc21)c1ccccc1O (stereo not drawn) | inactive: 35.5 µM
16 | c1ccc2c(CN3CCN(Cc4c[nH]c5ccccc45)CC3)c[nH]c2c1 | inactive: 18.1 µM
17 | OCCN(CCO)CCn1cnc2c(NCc3ccccc3)ncnc21 | inactive: > 100 µM
18 | COc1ccc(/C(=C/n2ccnc2)C(=O)c2ccc(OC)c(OC)c2)cc1 | inactive: > 100 µM
19 | Cc1nc2ccccc2c(=O)n1NC(=S)Nc1ccccc1 | inactive: > 100 µM
20 | COc1cc(Nc2cnc3cc(F)c(F)cc3n2)cc(OC)c1 | inactive: > 100 µM
21 | Cc1ccccc1NC(=O)C1C(=O)N(c2ccccc2C)C(=O)/C1=N\NC(N)=S (stereo not drawn) | inactive: > 100 µM
22 | O=C1Oc2ccccc2C(=O)/C1=C1/C=C(c2ccccc2)SS1 | inactive: > 100 µM
23 | COc1ccccc1Cc1ccc(C2C=CC3(CC(=O)C=C3C)C(=O)C2)o1 (stereo not drawn) | inactive: 40.7 µM
24 | CCOc1ccccc1NC(=O)CCC(=O)OC | inactive: > 100 µM

Row | Structure (SMILES) | GI50
25 | COc1ccc(C(C2C(=O)N(C)C(=O)N(C)C2=O)C(F)(F)C(=O)N(C)C)cc1 (stereo not drawn) | inactive: > 100 µM
26 | O=C(O)c1cc(CC2Cc3cc4c(cc3C2=O)CCC4)cc2c1CCC2 (stereo not drawn) | inactive: > 100 µM
27 | O=C(CC(=O)Nc1ccc(C(=O)O)cc1)Nc1ccc(C(=O)O)cc1 | inactive: > 100 µM
28 | O=C(/C=C\c1ccc(Cl)cc1Cl)c1cccs1 | inactive: 33.2 µM
29 | CCOC(=O)CCC(NC(=O)c1ccc(OCc2ccc3nc(-c4ccccc4)c(Cl)nc3c2)cc1)C(=O)OCC (stereo not drawn) | inactive: > 100 µM
30 | Nc1nc(Cl)c(/N=N/c2ccc(Cl)cc2)c(NCC2(CO)CCC(CCc3ccccc3)C2)n1 (stereo not drawn) | inactive: 16.7 µM
31 | O=C(CC1(O)C(=O)Nc2ccccc21)c1ccc2ccccc2c1 (stereo not drawn) | inactive: > 100 µM
32 | Fc1cccc(C2ON=C(c3ccccc3)N2C23CC4CC(CC(C4)C2)C3)c1 (stereo not drawn) | inactive: > 10 µM
33 | COc1ccc(/C(Nc2ccccc2)=C(\CCl)c2ccccc2)cc1OC | inactive: > 100 µM
34 | CCNC(=O)CCN(C(=O)O)S(=O)(=O)c1ccc(NC(=O)c2ccccc2)cc1 | inactive: > 100 µM
35 | CN(C)C(CN)CC1=C(CC(CN)N(C)C)CCC1 (stereo not drawn) | inactive: > 100 µM
36 | c1ccc2c(c1)nc1n2CSC1 | inactive: > 100 µM
37 | CN(C)C(=S)/N=c1\ss/c(=N\C(=S)N(C)C)n1Cc1ccco1 | inactive: > 100 µM
38 | CCC[C@H](N[S+]([O-])c1ccc(C)cc1)C(C(=O)OCC)=C(c1ccccc1)c1ccccc1 (stereo partly drawn) | inactive: 18.7 µM
39 | Cc1cc(Cl)ccc1NC(=O)CC1SC(Nc2ccccc2Cl)=NC1=O (stereo not drawn) | inactive: 63.2 µM
40 | COC(=O)C(C(=O)C(=O)Nc1ccccc1C#N)c1nc2ccc([N+](=O)[O-])cc2nc1O (stereo not drawn) | inactive: > 100 µM
41 | O=S(=O)(O)c1ccc2c(/N=N/c3ccc(/N=N/c4ccccc4)cc3)c(O)c(S(=O)(=O)O)cc2c1 | inactive: > 100 µM
42 | COc1ccc(/C=N/n2c(Cc3ccccc3)n[nH]c2=O)cc1 | inactive: > 100 µM
43 | CCCCCCCCCCCCCCCCCCNC(=O)OCC(CNS(=O)(=O)CCC[n+]1cccc2ccccc21)COC (stereo not drawn) | inactive: 6.47 µM
44 | CSc1cnc2ccccc2c1SC1CN(Cc2ccccc2)c2ccccc2C1=O (stereo not drawn) | inactive: > 100 µM
45 | CCOc1ccc(/C(C=O)=C(\Cl)c2ccc(OC)cc2)cc1 | inactive: > 100 µM
46 | Cc1ccc(NC(=O)CSc2nc(O)nc3[nH]cnc23)cc1 | inactive: > 100 µM
47 | CNC(=O)OCC1=C(COC(=O)NC)C(C)N(c2ccccc2)C1 (stereo not drawn) | inactive: 40.8 µM
48 | C/C(=N\NC(=S)Nc1ccc(Cl)cc1)c1nc2cccnc2[nH]1 | inactive: 1.88 µM

Row | Structure (SMILES) | GI50
49 | C/C=C1\CC(C(=O)OCC)CCCCCCC1=O (stereo not drawn) | inactive: > 100 µM
50 | NC1=NN(c2ccccc2)C(=O)C1C(=O)C(=O)NC1C2CC3CC(C2)CC1C3 (stereo not drawn) | inactive: > 100 µM
51 | O=[N+]([O-])/C(C(Cl)=C(Cl)Cl)=C1\Nc2ccc([N+](=O)[O-])cc2N1 | inactive: > 100 µM
52 | O=C1/C(=C/Cc2ccco2)N=C(c2ccccc2)N1c1nc2ccc(Sc3ccccc3)cc2[nH]1 | inactive: 32.4 µM
53 | CN(C)C=[N+]=[N-] | inactive: > 100 µM
54 | [O-]/[N+](=N/c1ncc(-c2ccccc2)cn1)c1ncc(-c2ccccc2)cn1 | inactive: 35.9 µM
55 | CC1=NN(C(=O)CC(=O)Nc2ccccc2C)C(=O)C1/N=N/c1ccc(C(=O)O)cc1 (stereo not drawn) | inactive: > 100 µM
56 | CN(C)Cc1cc(/N=N/c2ccccc2)cc(CN(C)C)c1O | inactive: 56.6 µM
57 | CCN(CC)C(=O)N[C@@H](Cc1ccccc1)C(=O)NC | inactive: > 100 µM
58 | CN(CCc1ccccn1)c1ccc2c(c1)Cc1ccccc1-2 | inactive: 25.1 µM
59 | N#Cc1c(O)c(/N=N/c2ccccc2F)c(=O)n2c1[nH]c1ccccc12 | inactive: 21.6 µM
60 | CCC1CCN/C(=N/S(=O)(=O)c2cc(C)c(Cl)cc2S)N1 (stereo not drawn) | inactive: 47.8 µM
61 | CC(=O)NNc1nc(C)c(C(=O)NNC(=O)C(=O)Nc2ccc(Cl)cc2)s1 | inactive: > 100 µM
62 | O=C1C(=O)N(c2ccc(Cl)c(Cl)c2)C(=O)C(=O)C1c1nc2ccccc2s1 | inactive: > 100 µM
63 | COc1cc2cc3c4c(cc(OC)c(OC)c4c2cc1OC)CCN3 | inactive: 95.7 µM
64 | Cc1ccc(S(=O)(=O)N(CC(O)COc2ccccc2)c2c(F)c(F)cc(F)c2F)cc1 (stereo not drawn) | inactive: 29.6 µM
65 | CC(=O)Nc1ccc2c3c(cc(O)c2c1)N(C(=O)CCCCCCC(=O)Nc1ccc2c4c(cc(O)c2c1)N(C(=O)OC(C)(C)C)CC4CCl)CC3CCl (stereo not drawn) | active: 0.258 µM
66 | Cc1cccc(C)c1NC(=O)C(=O)C1C(=O)N(c2ccccc2)N=C1N (stereo not drawn) | inactive: > 100 µM
67 | O=C(Sc1c(-c2ccccc2)c(=O)n(-c2ccccc2)c(=S)n1-c1ccccc1)c1ccc(Cl)cc1 | inactive: 55.3 µM
68 | O=Cc1ccc(-c2cccc([N+](=O)[O-])c2)s1 | inactive: > 100 µM
69 | FC(F)(F)c1ccc2nc3n(c2c1)C(c1c(Cl)cccc1Cl)SC3 (stereo not drawn) | inactive: 17.5 µM
70 | O=C1Nc2ccccc2/C1=N/NC(=O)C(O)(c1ccccc1)c1ccccc1 | inactive: 19.9 µM
71 | O=[N+]([O-])c1ccc2[nH]c3c(-c4ccccc4)nccc3c2c1 | inactive: 16.7 µM
72 | COc1cc2c(/C=C3/C(=O)Nc4ccc(Cl)cc43)c(Cl)[nH]c2cc1C | inactive: 2.36 µM

Row | Structure (SMILES) | GI50
73 | Cc1ccc(S(=O)(=O)NCCCSCCO)cc1 | inactive: > 100 µM
74 | S=C(NCCc1ccccn1)c1nc[nH]c1C(=S)NCCc1ccccn1 | inactive: > 100 µM
75 | CNC(=O)N(C1=NCC(C)S1)c1ccc(C)c(C)c1 (stereo not drawn) | inactive: 4.78 µM
76 | Cc1c2c(cc[n+]1C)O[B-](c1ccccc1)(c1ccccc1)O2 | inactive: 66.8 µM
77 | Nc1c(C(=O)c2ccccc2)[nH]c(NCc2ccccc2)c1C(=S)Nc1ccccc1 | inactive: > 100 µM
78 | CC(C)=CCC/C(C)=C/CC/C(C)=C/[C@@H]1[C@@H](CO)[C@]1(C)CC/C=C(\C)CCC=C(C)C | inactive: > 100 µM
79 | Cc1ccccc1NC(=O)C(=O)c1c(O)c2ccc(O)cc2oc1=O | inactive: > 100 µM
80 | COc1ccc2c(c1)/C(=C\c1c(Cl)[nH]c3ccccc13)C(=O)N2 | inactive: 5.5 µM
81 | N#C/N=C(/N)NCN/C(N)=N\C#N | inactive: 94 µM
82 | CC12c3c4cc(Br)cc3Oc3cc(Br)cc(c31)Oc1cc(Br)cc(c12)O4 | inactive: > 100 µM
83 | c1ccc(CCN(Cc2nc3ccccc3[nH]2)Cc2nc3ccccc3[nH]2)cc1 | inactive: 16.2 µM
84 | Cc1cc(C)nc(NS(=O)(=O)c2ccc(NC(=O)COC(=O)c3cccc4c(=O)c5ccccc5[nH]c34)cc2)n1 | inactive: 25.9 µM
85 | O=C(CCCNC(=O)OCc1ccccc1)OCc1ccc2c(c1)C(=O)c1ccccc1C2=O | inactive: > 100 µM
86 | O=C1c2ccccc2CC1C1(O)C(=O)Nc2c(Cl)cc(Cl)cc21 (stereo not drawn) | inactive: > 100 µM
87 | COc1cc(CC2c3cc(OC)c(OC)cc3CCN2C)c(Oc2cc3c(cc2OC)-c2c(OC)c(OC)c(OC)c4c2C(C3)N(C)CC4)cc1OC (stereo not drawn) | inactive: > 39.4 µM
88 | CCOC(=O)c1nc2cc(C(F)(F)F)ccc2nc1Nc1ccc(OC)cc1 | inactive: 44.7 µM
89 | N#C[BH2-][n+]1cn(C2CC(O)C(COP(=O)(O)OC3CC(n4c[n+]([BH2-]C#N)c5c(=O)[nH]c(N)nc54)OC3CO)O2)c2nc(N)[nH]c(=O)c21 (stereo not drawn) | inactive: > 100 µM
90 | O=c1c2ccc(S(=O)(=O)c3ccc4c(=O)n5c6ccccc6nc5c5cccc3c45)c3cccc(c32)c2nc3ccccc3n12 | inactive: > 100 µM
91 | c1ccc2c(c1)[nH]c1c2cc[n+]2cc3c(cc12)CCCC3 | inactive: 2.23 µM
92 | Cc1cccc2nc3cc(O)cc(O)c3c(O)c12 | inactive: 9.38 µM
93 | Oc1cc(-c2cccc(Cl)c2)nc2ncccc12 | active: 0.204 µM

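Protocol summary: plate cells (96-well), add compound at 5 concentrations, incubate 48 h, interpolate endpoints linearly. GI50 = concentration required for 50% inhibition of growth.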 The source made the active and inactive calls. Rule as the data show it: active = GI50 up to about 1.1 µM and inactive = higher.
